# Laboratory results published in PMC4336329 (PLoS ONE, 2015).
# The whole screen tested about 310,000 compounds, of which about 14,000 (4.5%) showed an effect of 50% or more. Effects have a minus sign here. The list shows a part of the results.
# Target: human ether-à-go-go-related gene (hERG) potassium channel (human, UniProt Q12809)
# Experiment: primary screen, population patch clamp on CHO cells stably expressing hERG
# 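Further: peak tail current of the secondary pulse compared with the same well before compound.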
# human ether-à-go-go-related gene (hERG) potassium channel, sequence (Q12809 whole entry, looked up): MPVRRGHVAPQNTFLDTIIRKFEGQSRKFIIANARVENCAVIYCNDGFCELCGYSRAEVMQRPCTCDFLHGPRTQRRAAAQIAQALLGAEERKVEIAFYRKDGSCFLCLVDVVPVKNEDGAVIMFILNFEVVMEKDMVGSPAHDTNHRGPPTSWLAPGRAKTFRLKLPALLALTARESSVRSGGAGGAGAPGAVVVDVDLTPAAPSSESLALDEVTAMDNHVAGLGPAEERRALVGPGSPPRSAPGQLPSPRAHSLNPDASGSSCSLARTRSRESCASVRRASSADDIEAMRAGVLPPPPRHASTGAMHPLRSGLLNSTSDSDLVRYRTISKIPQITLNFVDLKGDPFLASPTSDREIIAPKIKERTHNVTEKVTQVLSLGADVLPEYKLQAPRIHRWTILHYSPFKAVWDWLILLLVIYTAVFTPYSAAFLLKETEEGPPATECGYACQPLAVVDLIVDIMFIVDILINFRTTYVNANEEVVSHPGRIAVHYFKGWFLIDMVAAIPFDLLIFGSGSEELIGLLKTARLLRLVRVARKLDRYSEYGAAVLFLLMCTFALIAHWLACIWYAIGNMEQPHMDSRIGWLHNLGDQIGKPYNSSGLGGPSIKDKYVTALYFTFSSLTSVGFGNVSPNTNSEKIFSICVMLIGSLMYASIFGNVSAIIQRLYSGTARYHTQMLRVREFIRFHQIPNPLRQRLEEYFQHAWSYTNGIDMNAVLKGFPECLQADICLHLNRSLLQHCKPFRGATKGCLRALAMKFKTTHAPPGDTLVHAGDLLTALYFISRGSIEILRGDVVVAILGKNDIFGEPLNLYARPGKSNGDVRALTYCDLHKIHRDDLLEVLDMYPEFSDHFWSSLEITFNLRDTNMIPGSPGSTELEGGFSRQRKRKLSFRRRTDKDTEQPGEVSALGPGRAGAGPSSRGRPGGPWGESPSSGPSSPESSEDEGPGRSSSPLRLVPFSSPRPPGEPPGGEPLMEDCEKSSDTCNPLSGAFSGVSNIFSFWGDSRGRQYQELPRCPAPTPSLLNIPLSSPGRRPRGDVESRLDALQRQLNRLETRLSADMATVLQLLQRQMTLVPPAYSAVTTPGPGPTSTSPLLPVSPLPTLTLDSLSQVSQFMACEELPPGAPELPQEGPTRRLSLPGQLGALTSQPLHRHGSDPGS
row,SMILES,"hERG current change (%, negative = inhibition) at 10uM [%]"
1,CCCCN(CC)C(=S)Nc1ccc2nc(N3CCN(C)CC3)cc(C)c2c1,-56.3
2,COc1cccc(C2N(c3ccccc3)CCN2c2ccccc2)c1OC,4.77
3,Cc1cccc(C(=O)O/N=C(\N)c2ccccn2)c1,2.89
4,Cc1[nH]n(-c2ccccc2)c(=O)c1C=NC1CCCCCC1,-1.2
5,C=CCn1c(Cc2cccc3ccccc23)n[nH]c1=S,6.09
6,O=C(CCS(=O)(=O)Cc1ccccc1)Nc1ncc([N+](=O)[O-])s1,10.8
7,O=C1N=c2ccc([N+](=O)[O-])cc2=C1c1sc(=O)[nH]c1O,14.6
8,COCCc1nc2ccc(C(=O)NCc3cccc(-n4cccn4)c3)cc2o1,1.28
9,Cc1cccnc1,17.7
10,COc1cc2c(cc1OC)-c1cc(N3CCCCCC3)nc(=O)n1CC2,1.22
11,CNc1ccc(NC(C)=O)cc1[N+](=O)[O-],1.68
12,CC(C)C(NC(=O)Cc1ccccc1)C(=O)N1CCN(c2cccc(Cl)c2)CC1 (centres unmarked),-34.4
13,COc1ccc(N2C(=O)CC(N(CCc3ccc(OC)c(OC)c3)C(=S)Nc3ccccc3)C2=O)cc1 (centres unmarked),-12
14,CC(=O)c1ccc(OC(C)C)c(CSc2nc(O)cc(=O)[nH]2)c1,17.1
15,CC(=O)c1cc2c(cc1NC(=O)c1cc(C)nn1-c1ccccc1)OCO2,-17.2
16,Cc1ccc(S(=O)(=O)O/N=C2/CCCc3occc32)cc1,9.47
17,Cc1ccccc1CCNC(=O)Cn1nc(C)c2c(C)n(-c3ccccc3)nc2c1=O,-28.7
18,COc1ccc(S(=O)(=O)N2CCOCC2)cc1NC(=O)COC(=O)C1CC2CCCC(C1)C2=O (centres unmarked),-24
19,CCN(CC)CCO,19.6
20,O=C(OCc1ccccc1F)c1cc([N+](=O)[O-])ccc1N1CCOCC1,-47.9
21,CCOC(=O)[C@@H]1[C@H]2COc3ccc(Br)cc3[C@@H]2N2C(=O)N(c3ccc(F)cc3)C(=O)[C@]12C,-7.2
22,CN1C(=O)c2cccc(NC(=O)Cc3ccccc3)c2C1=O,10.5

row,SMILES,"hERG current change (%, negative = inhibition) at 10uM [%]"
1,CNC(=S)N1CCC(NC(=O)C(Cc2ccc(OC)cc2)NC(C)=O)CC1 (centres unmarked),20.5
2,O=C(COc1ccccc1)NC1CCCc2ccccc21 (centres unmarked),-19.3
3,CN(C)S(=O)(=O)c1cc(NC(=O)CNCc2ccccc2)ccc1Cl,-10.2
4,CCC(C)n1cnc2c(c1=O)c1nc3ccccc3nc1n2-c1ccc2c(c1)OCCO2 (centres unmarked),-13.3
5,Cn1c(=O)[nH]c(=O)c2c1nc(N/N=C/c1ccncc1)n2Cc1ccc(Cl)cc1,15.1
6,CC(=O)c1c(CC(=O)O)[nH]n(-c2nc3ccccc3s2)c1=O,3.17
7,COc1ccc(OCCNC(=O)c2ccccc2OCC(=O)N2CCCCC2)cc1,-4.89
8,CCSc1nnc(NS(=O)(=O)c2ccc(C)cc2)s1,10.6
9,CCOc1ccc(C(C)=O)cc1N1C(=O)C2C3C=CC(O3)C2C1=O (centres unmarked),10.6
10,Cc1cc(NC(=O)CSc2nnnn2-c2cc(Cl)ccc2C)no1,16.3
11,COc1cc(C(O)C(=O)O)ccc1O (centres unmarked),-0.629
12,COc1ccc(Cl)cc1NC(=O)CSc1nnc(-c2ccco2)o1,7.36
13,Cc1ccc2c(c1)c(N=Nc1ccc([N+](=O)[O-])cc1)c(O)n2C,17.1
14,CSc1ncc(Cl)c(C(=O)[O-])n1.[NH3+]CCc1ccccc1,-2.11
15,CCS(=O)c1scc(-c2ccc(Cl)cc2)c1C#N (centres unmarked),-37.8
16,CC(=O)NC(C)c1ccc(Cl)c(Cl)c1 (centres unmarked),13.1
17,CC(NC(=O)CCC(=O)Nc1ccccc1O)c1ccccc1 (centres unmarked),6.4
18,Cc1ccc(S(=O)(=O)NCC(c2cccnc2)N2CCN(Cc3ccccc3)CC2)cc1 (centres unmarked),-73.1
19,CS(=O)(=O)N(CC(=O)NCCSCc1ccco1)c1ccc(Cl)cc1,21.3
20,CN(C)C(CNC(=O)c1oc2ccccc2c1CSc1ncn[nH]1)c1ccco1 (centres unmarked),-8.03
21,CN1C2c3ccccc3C3C4c5ccccc5C(C31)C(C2[N+](=O)[O-])N4C (centres unmarked),8.45
22,COC(=O)c1cccc(NC(=O)c2onc3c2CCCC3)c1,-5.47
